Experimental data reported in the supplement of paper PMC12217912.
Some of the results follow. The full chains were built here from the parent and the listed change. Inactive controls read about 0.05.

B1: TEV protease; numbered along this chain (parent)
chain: MGESLFKGPRDYNPISSSICHLTNESDGHTTSLYGIGFGPFIITNKHLFRRNNGTLVVQSLHGVFKVKDTTTLQQHLVDGRDMIIIRMPKDFPPFPQKLKFREPQREERICLVTTNFQTKSMSSMVSDTSCTFPSGDGIFWKHWIQTKDGQCGSPLVSTRDGFIVGIHSASNFTNTNNYFTSVPKNFMELLTNQEAQQWVSGWRLNADSVLWGGHKVFMVKPEEPFQPVKEATQL

Variants of: B1
Assay: raw area under fraction-flipped curve 0-4 h after induction (AUC4h, not background-subtracted), DNA-recorder readout of cleavage of the substrate (dimensionless); higher = more cleavage of the substrate by the protease variant
Conditions: temperature: 34 °C; time window: 0-4 h after rhamnose induction
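Further: Bxb1 expression induced with 0.2% (w/v) L-rhamnose at OD600 near 0.5, cultures sampled hourly, flipped fraction per protease–substrate barcode pair counted by paired-end Illumina sequencing.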

Variant	area with substrate ENLYDQS	area with substrate ENLYEQS	area with substrate ENLYGQS	area with substrate ENLYHQS	area with substrate ENLYIQS	area with substrate ENLYKQS	area with substrate ENLYMQS	area with substrate ENLYNQS	area with substrate ENLYPQS	area with substrate ENLYRQS	area with substrate ENLYTQS	area with substrate ENLYVQS	area with substrate ENLYWQS	area with substrate ENLYYQS	area with substrate ENLYLQS	area with substrate ENLYQQS	area with substrate ENLYSQS
I145Q	0.0648	0.0541	0.053	0.0683	0.101	0.0557	0.0672	0.0529	0.0547	0.067	0.0771	0.0849	0.0443	0.0526			
S121G	0.0623	0.0856	0.0572	0.075		0.0235	0.0891	0.077	0.072	0.0615		0.137			0.0896		
I139P	0.0658	0.0633	0.0579	0.0688	0.13	0.0633		0.0403	0.0653		0.0955		0.0868		0.0843	0.0639	0.0849
L61E	0.068	0.073	0.0889	0.0737	0.123	0.0225		0.0675	0.0482	0.048			0.0882		0.0889		0.0748
K68V	0.0494	0.0652	0.0519	0.0702	0.128	0.0791		0.07	0.07	0.0441	0.0834	0.102	0.0754	0.0644		0.0643	
S130P		0.042	0.0763	0.0441	0.0567	0.066	0.054	0.0497	0.041								
S130W	0.0582	0.0662	0.0618	0.0591	0.0913	0.0573		0.0665	0.0774	0.0587	0.0629	0.0761	0.0644	0.0607		0.0919	
E231A	0.0637	0.0658		0.0863	0.113	0.0769	0.0819	0.076		0.0668			0.0833	0.0958	0.0748		0.0721
T44E	0.0479	0.0485	0.0398	0.0509	0.0416		0.0221	0.0246	0.0436		0.0372	0.0436	0.0323	0.0375		0.0488	
G162A	0.0577	0.0567	0.0697	0.0583	0.114	0.0786	0.0758		0.0728				0.0667			0.0739	
T174P	0.0436	0.07	0.0663		0.0612		0.0813	0.0541		0.0563		0.084		0.0597			
F38G		0.0386		0.046			0.0527		0.0423	0.0606		0.0728		0.0331	0.0414		
P225A	0.0779	0.0685	0.0548	0.0698	0.137	0.0515	0.092	0.0719	0.066		0.14	0.144	0.0771		0.101	0.0648	0.0855
N45M	0.0608	0.0608	0.0635	0.0675		0.0708	0.0619	0.0664	0.057	0.0602	0.0599	0.0472	0.0539	0.0551		0.0579	
